About 800 (1.6%) of roughly 50,000 compounds showed an effect of 50% or more. This is one part of the list.

This experiment deals with Bcl-2-like protein 10 (Homo sapiens) (UniProt Q9HD36). Description: Phenotype converters, Bcl-B/TR3 peptide binding displacement, primary biochemical FP (AID 1240).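 Also: 0% = Bcl-B with tracer peptide and DMSO and 100% = tracer peptide lacking Bcl-B.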 The conditions noted are these: GST-Bcl-B / FITC-TR3 peptide fluorescence polarization; stronger effect = higher value; compound at 3.75 mg/L. A general note: Polarisation of emitted light reports the rotation of a fluorescent probe.
UniProt Q9HD36, sequence (Q9HD36 whole entry, looked up): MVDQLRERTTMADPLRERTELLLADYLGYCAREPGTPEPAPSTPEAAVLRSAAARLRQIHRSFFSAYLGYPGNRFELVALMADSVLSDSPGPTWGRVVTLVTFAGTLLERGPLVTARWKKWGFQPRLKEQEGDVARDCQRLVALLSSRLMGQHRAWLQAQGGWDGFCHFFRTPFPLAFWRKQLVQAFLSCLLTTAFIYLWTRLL
Turning to `Fc1ccc(NC(=S)N2CCN(c3ncccn3)CC2)cc1`, the displacement is -5.8%.
For the compound `O=c1c(-c2ccccc2)c(C(F)(F)F)oc2cc(O)ccc12`, the displacement is -3.9%.
The figure for `CCOc1ccc(NC(=O)CSc2nnc(-c3ccc(OC)cc3)o2)cc1` is 9.8%.
For the compound `Cc1cc(C)c2nc3s/c(=C\c4ccc(Br)cc4)c(=O)n3c2c1`, the displacement amounted to 0%.
Regarding `CC1CCC(=C(C#N)c2nc(-c3cc4ccccc4oc3=O)cs2)CC1` (configuration not stated), the displacement was 42%.
Turning to `COC(=O)C1=CN(Cc2ccc(C)cc2)C=C(C(=O)OC)C1c1cc(OC)c(OC)c(OC)c1`, the displacement was determined as 4.7%.
On to `COc1ccc(CN2CCN(C(=O)c3ccc(-c4ccccc4)cc3)CC2)c(OC)c1OC`, for which the displacement was -3.2%.
As for `CCOc1ccc(NC(=S)NC(=O)/C=C/c2ccc(C)cc2)c([N+](=O)[O-])c1`, the figure is 6.3%; as for `CCc1ccccc1NC(=O)CN(c1ccc(Br)cc1)S(C)(=O)=O`, -7%.
Consider `COc1ccc(-c2nc3ccccc3c(=O)o2)c(OC)c1`, for which the displacement came out at 2.2%.
In the case of `COc1cc(C(=S)N2CCOCC2)cc(OC)c1OC(=O)c1ccc(Br)cc1`, the displacement stood at 12.3%.
For `CCCCNc1c(C)c(O)cc2cc(OC)c(OC)cc12`, the displacement was found to be 5.9%.
Regarding `O=C(Nc1nnc(CSCc2ccccc2)s1)c1cccc2ccccc12`, the displacement came to 10.8%.
In the case of `CCOC(=O)C1=C(C)NC(=S)NC1c1cc(C(C)C)c(OC)cc1C` (configuration not stated), the displacement is -1.3%.
The figure for `O=C(/C=C/c1cc2c(cc1Br)OCCO2)c1c(-c2ccccc2)c2cc(Cl)ccc2[nH]c1=O` is 11.6%.
The figure for `O=[N+]([O-])c1cccc(NS(=O)(=O)/C=C/c2ccccc2)c1` is 2.1%; for `CCCC(=O)Nc1ccc(N2CCOCC2)cc1` it is 8.9%.
As for `O=c1/c(=C\c2ccccc2C(F)(F)F)sc2nc3ccccc3n12`, the displacement is -11.4%.
As for `COc1ccc(C(=O)Nc2ccc(N3CCOCC3)cc2)cc1OC`, the figure is 0.5%; as for `C=CCN(CC=C)CN1C(=O)C(=O)c2cc(Br)ccc21`, 6.3%.
As to `CCOC(=O)c1c(NC(=O)c2cccc(F)c2)sc(C(=O)Nc2ccccc2OCC)c1C`, the displacement stood at 5.3%.
For the compound `COc1cccc2c1NC(c1cccc3ccccc13)C1CC=CC21` (configuration not stated), the displacement was -1.9%.
`O=C(c1ccccc1)N1CCN(C2CC(=O)N(CCc3ccccc3)C2=O)CC1` (configuration not stated): the displacement was 3.9%.
For `Cc1ccc([N+](=O)[O-])cc1N1C(=O)C2C3C=CC(CC3)C2C1=O` (configuration not stated), the displacement was found to be 5.4%.
Take `O=C(/C=C/c1ccccc1)N1CCN(c2ccccn2)CC1`: the displacement came out at 11.9%.
The figure for `O=C1OC(c2ccccc2)=N/C1=C1\C=C(c2ccccc2)Oc2ccccc21` is -4.2%; for `COc1ccc(C2CC(=O)C3=C(C2)Nc2ccccc2NC3c2cc(F)ccc2F)cc1OC` (configuration not stated) it is 0%.
As for `CCCC(C)NC(=O)c1c(Cl)cccc1Cl` (configuration not stated), the figure is 4.5%; as for `CN1C(=O)/C(=C2/SC(=S)N(CCC(=O)O)C2=O)c2cc(Br)ccc21`, 30.8%; as for `CCc1ccccc1N(CC(=O)Nc1cccc(C(F)(F)F)c1)S(C)(=O)=O`, 1.1%.
As for `CCCN(CCC)C(=O)c1ccccc1NC(=O)c1cccs1`, the figure is 5.6%.
Turning to `CC(=O)NN1C(=O)/C(=C/c2cccc(O)c2)SC1=S`, the displacement was 1.4%.
Consider `C=CCN1C(=O)/C(=C/c2ccc(N(C)C)cc2)SC1=S`, for which the displacement worked out at 0%.
For `CC(=O)c1cccc(NS(=O)(=O)c2cc(Cl)ccc2Cl)c1`, the displacement was -2%.
The figure for `Nc1c(C(=O)c2ccc(Cl)cc2)sc2nc(-c3ccccc3)ccc12` is -3.6%; for `CC(C)(C)C1CCC2(CC1)NC(=S)N(c1ccccc1)N2` (configuration not stated) it is 8%; for `O=C(Nc1nnc(COc2ccc(Cl)cc2Cl)s1)c1ccco1` it is 15%.
The figure for `CC1=C(C(=O)OCCOc2ccccc2)C(c2cc3c(cc2Br)OCO3)NC(=O)N1` (configuration not stated) is 1.6%; for `NS(=O)(=O)c1ccc(CNC2CC(=O)N(c3ccc(Cl)c(Cl)c3)C2=O)cc1` (configuration not stated) it is 5.3%.
Take `COc1ccc(NC(=O)COc2ccc(Br)cc2C(C)(C)C)c([N+](=O)[O-])c1`: the displacement amounted to 0%.
With `CCSCCOC(=O)C1=C(C)NC2=C(C(=O)CC(C)(C)C2)C1c1cccc2ccccc12` (configuration not stated), the displacement is -2.6%.
The figure for `COC(=O)c1c(NC(=O)C2C(C=C(Cl)Cl)C2(C)C)sc2c1CCCC2` (configuration not stated) is 4.5%; for `COC(OC)C12c3ccccc3C(c3ccccc31)C1C(=O)N(c3cccc(Cl)c3)C(=O)C12` (configuration not stated) it is 6.9%.
The figure for `COc1ccc(NC(=O)COc2ccc(C)cc2)cc1Cl` is -2.4%.
In the case of `Cc1ccc(N(CCCCN2C(=O)c3ccccc3C2=O)C(=O)c2ccc(Cl)s2)cc1`, the displacement is 23.2%.
Consider `COC(=O)c1cc2nc(-c3ccc(OC)cc3)cc(C(F)(F)F)n2n1`, for which the displacement came to 7.9%.
Take `O=[N+]([O-])c1ccccc1S(=O)(=O)Nc1cc(C(F)(F)F)ccc1Cl`: the displacement was -4.5%.
`COc1cccc(-n2c(O)c(C=Nc3cccc(Cl)c3)c(=O)[nH]c2=O)c1`: the displacement was -3.7%.
As to `O=c1c2cc3c(=O)n(Cc4ccco4)c(=O)c3cc2c(=O)n1Cc1ccco1`, the displacement is -10.4%.
As to `Cc1ccc(N2C(=O)CSC2c2ccc(Cl)cc2)cc1C` (configuration not stated), the displacement is 11.2%.
Turning to `CN(c1ccccc1)S(=O)(=O)c1ccc(F)cc1`, the displacement was -9.3%.
The figure for `Oc1ccc(/C=N/Nc2nncc(-c3ccccc3)n2)cc1` is -3.3%.
For `O=C(O)CCC(=O)NNc1nc(-c2ccccc2)c2cc(Cl)ccc2n1`, the displacement was -12%.
Take `COc1ccc(-c2n[nH]c(=S)n2C2CCCCC2)cc1`: the displacement is 1.4%.
As for `Cc1cc(OCC(=O)Nc2cc(-c3nc4ccccc4o3)ccc2C)ccc1Cl`, the figure is 21.6%.
As for `COc1ccc(/C=N/N2CCN(C(c3ccccc3)c3ccccc3)CC2)c(OC)c1`, the figure is -8%.
With `O=C(COc1ccc([N+](=O)[O-])cc1)Nc1cccc(Cl)c1Cl`, the displacement is 12.9%.
The figure for `CCCOc1ccc(C(=O)Nc2ccc(N(CC)CC)cc2)cc1` is -2.6%.
With `COc1ccc(S(=O)(=O)Nc2ccc(C)cc2Br)cc1`, the displacement worked out at 3.5%.
The figure for `O=C(C(c1ccccc1)c1ccccc1)N1CCN(Cc2ccncc2)CC1` is 1.2%.
As for `O=[N+]([O-])c1cccc(S(=O)(=O)NNc2ccccc2)c1`, the figure is -2.7%.
The figure for `O=[N+]([O-])c1cc(Cl)ccc1N1CCN(CCO)CC1` is 6.5%; for `CCOC(=O)c1c(NC(=O)c2cccc(F)c2)sc(C(=O)Nc2cc(C(F)(F)F)ccc2Cl)c1C` it is -7.9%; for `CCOc1cccc2c1N(C(=O)Cc1ccc(F)cc1)C(C)(C)c1ssc(=S)c1-2` it is 14.9%.
For the compound `COc1ccccc1NC(=O)c1c(NC(=O)c2ccc([N+](=O)[O-])cc2)sc2c1CCCCC2`, the displacement worked out at 3.7%.
As for `CC(C)NC(=O)CN(c1ccc(F)cc1)S(=O)(=O)c1ccccc1`, the figure is 1.1%.
As for `Cc1ccc(C)c(N2C(=O)CC(Cc3ccc(Br)cc3)C2=O)c1` (configuration not stated), the figure is 11%; as for `CCN(CC)C1=C/C(=N/S(=O)(=O)c2ccccc2)c2ccccc2C1=O`, 6.2%; as for `Cc1cc(OCC(=O)NC2CCCCC2)ccc1Br`, -2.7%.
The figure for `COc1ccc(CNS(=O)(=O)c2ccc(Br)cc2)cc1` is 5.2%; for `COc1ccc(Br)cc1/C=C/C(=O)Nc1ccc(O)c(-c2nc3ccccc3o2)c1` it is 5.5%; for `N/C(=N\OC(=O)c1ccc(I)cc1)c1ccccn1` it is -0.1%.
On to `CCN(CC)C(=O)CN(c1cc(Cl)ccc1OC)S(=O)(=O)c1ccc(C)c([N+](=O)[O-])c1`, for which the displacement amounted to 13.6%.
For `Cc1cc(C)c(NC(=O)c2ccccc2[N+](=O)[O-])c(C)c1`, the displacement came to 13.5%.
With `Cc1ccc(NC(=O)C2COc3ccccc3O2)cc1` (configuration not stated), the displacement was -6.8%.
The figure for `COc1ccc2c(c1)c(/C=C/c1nc3ccccc3c(=O)n1-c1cccc(C)c1)c(C)n2C` is -6.2%; for `COC(=O)C1=C(C)N(C)C(=S)NC1c1cccc(OC)c1` (configuration not stated) it is -17.4%.
Take `CC1C(=O)N(c2ccc(Cl)c(Cl)c2)C(=N)N1c1nc(N(C)C)nc(N(C)C)n1` (configuration not stated): the displacement amounted to 4.9%.
Consider `CCOC(=O)c1c(NC(=O)c2cccnc2)sc(C)c1C`, for which the displacement was -3.5%.
The figure for `Cc1ccn(-c2cc(O)c(-n3ccc(C)n3)cc2O)n1` is -9.7%.
With `O=C(NC(=S)Nc1ccc(F)cc1)c1cc2ccccc2oc1=O`, the displacement turned out to be 0.1%.
The figure for `Cc1ccc(N(CC(=O)Nc2cccnc2)S(=O)(=O)c2ccc(F)cc2)cc1` is -4%; for `CC(C)c1ccc2[nH]c3c(c2c1)CCC/C3=N\NC(=O)c1ccncc1` it is -16.6%; for `O=C(Nc1ccccc1C(=O)Nc1ccccc1)c1ccc(C(=O)Nc2ccccc2C(=O)Nc2ccccc2)cc1` it is 2.8%.
`Nc1nnc(SCC(=O)Nc2nc(-c3ccccc3)cs2)s1`: the displacement was -3.2%.
As to `CS(=O)(=O)N(CC(=O)Nc1cccc(Br)c1)c1ccc(Cl)cc1`, the displacement worked out at 14.1%.
The figure for `Cn1cc(C(=O)N/N=C/c2ccccc2)ccc1=O` is 6%; for `O=c1c2cnn(-c3ccccc3)c2nc(-c2ccccc2)n1-c1ccccc1` it is 3.9%.
Regarding `O=S(=O)(c1ccccc1)N1CCN(C2CCCC2)CC1`, the displacement is -7.7%.
As for `CN(C)S(=O)(=O)c1cc(S(=O)(=O)N(C)C)c(Cl)cc1N`, the figure is -3.7%; as for `COc1ccc(S(=O)(=O)Nc2ccccc2OC)cc1`, 17.7%.
Regarding `C=CCOc1ccc(C(=O)Nc2ccccn2)cc1`, the displacement was -11%.
As for `COc1ccc(CO/N=C(/N)c2nonc2N)cc1[N+](=O)[O-]`, the figure is 13.6%; as for `Cc1ccc(SCCNC(=O)c2cccc(Cl)c2)cc1`, -5.9%; as for `O=C(Cc1ccc([N+](=O)[O-])cc1)N1N=C(c2ccc(Br)cc2)CC1(O)C(F)(F)F` (configuration not stated), 13.5%.
As for `Cc1ccc([N+](=O)[O-])cc1-c1ccc(/C=C2\C(=O)NC(=O)N(c3ccc(Cl)cc3)C2=O)o1`, the figure is 6.8%; as for `NC1=NC2(CCCC2)N=C(Nc2cccc3ccccc23)N1`, -14.3%.
As for `O=C(c1ccc(F)cc1)c1ccc(N2CCCC2)cc1`, the displacement is -7.2%.
As for `COc1ccc(-c2[nH]c3[n+](c2N)CCS3)cc1`, the figure is -17.5%; as for `CCOc1ccc(C2C(C(=O)/C=C/c3ccccc3)=C(O)C(=O)N2CCCCCC(=O)O)cc1` (configuration not stated), -1%; as for `O=C(/C=C/c1ccccc1)NCCSc1ccccn1`, 3.7%.
The figure for `Cc1ccc(Cl)cc1NC(=O)c1ccccc1N(Cc1ccccc1)S(=O)(=O)c1ccccc1` is 2.3%; for `CC(=O)Nc1ccc(S(=O)(=O)N2CCN(Cc3ccccc3)CC2)cc1` it is 1.4%.
With `CC(C)(C)c1ccccc1OCC(O)CN1CCN(c2ccccc2)CC1` (configuration not stated), the displacement was -5.2%.
`Cc1sc2nc(SC/C=C/c3ccccc3)n(-c3ccccc3)c(=O)c2c1C`: the displacement is -8.5%.
The figure for `CCCCc1c(C)nc(N/N=C/c2ccc(OCCC)cc2O)[nH]c1=O` is -6.4%.
As for `Cc1cc(/C=C2/SC(=O)NC2=O)c(C)n1-c1cccnc1`, the displacement amounted to 0.8%.

(Values after PubChem BioAssay AID1240 (Sanford-Burnham Center for Chemical Genomics, 2008).)
